According to PubChem BioAssay (NCATS):
The inconclusive results got no clear call from the source; some entries with a clear call stand among them for comparison. The source made the active and inactive calls. Calls follow the shape of the dose curve; as a rule, active = well fitted curve in either direction with a large enough effect (not every such curve was filed as active); inconclusive = small, poorly fitted or top-dose-only effect, or another doubt; inactive = flat fitted curve, though single readings scatter.

assay: NFAT Signaling Pathway (AID 444); details: Jurkat NFAT-bla M1, carbachol, beta-lactamase ratio, 5 h; at 17.2 µM (top of the series) unless noted;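 also: carbachol stimulus at about its EC50 of 1 µM final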
Procedure, shortened: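 Read-out: CCF4 FRET ratio (460 nm/530 nm) after 1 h RT dye loading, used for %activity and AC50 from titration series. Cells: Jurkat NFAT-β-lactamase/M1 line, treated with compound plus 1 uM carbachol for 5 h, 37 °C.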
% is scaled to controls: 0 for no effect and ±100 for the full control effect.

Activity change, negative = inhibition, inactive:
CC(=O)[C@]1(O)CC[C@@H]2[C@H]3C[C@@H](C)C4=CC(=O)CC[C@@]4(C)[C@H]3[C@@H](O)C[C@]21C 16.8% [at 7.69 µM], COc1cc(/C=N/n2c(C)nnc2C)cc(OC)c1OC 10.5%, C[C@@]12C=CC(=O)C=C1CC[C@@H]1C2=CC[C@]2(C)[C@@H]1CC[C@H]2C(=O)CN1CCN(c2cc(N3CCCC3)nc(N3CCCC3)n2)CC1 -21.1% [at 38 µM], CC(=O)S[C@H]1CC2=CC(=O)CC[C@@]2(C)[C@H]2CC[C@@]3(C)[C@H](CC[C@]34CCC(=O)O4)[C@@H]12 -8.69%, C=C/C(C)=C/[C@]1(C)SC(=O)C(C)=C1O 11.1% [at 38 µM], CC1CCC(C(=O)O)([C@H](Br)C(=O)O)CC1 (stereo partly specified) 13.7% [at 7.69 µM]

Activity change, negative = inhibition, inconclusive:
CCSc1nnc(NC(=O)NC(CC)(C(F)(F)F)C(F)(F)F)s1 -50.7% [inhibitor], Brc1ccc(-c2cnc3n2CCCC3)cc1 -71.9% [inhibitor], C[C@@]12CCC(=O)C=C1CC[C@@H]1[C@@H]2[C@H](O)C[C@]2(C)[C@@H]1CC[C@]2(O)C(=O)COC(=O)CCC(=O)O -41.8% [inhibitor] [at 38 µM], CN(C)Cc1ccccc1-c1cncnc1NCc1cccs1 -66.2% [inhibitor] [at 7.69 µM], CCOC(=O)NC(Nc1sc2c(c1C(=O)OC)CCN(C)C2)(C(F)(F)F)C(F)(F)F -49% [inhibitor]
